Screen size: about 410,000 compounds; about 1,200 (0.29%) were called active. Inconclusive results, whose numbers are uncertain, are shown with a selection of clear calls. Calls follow the shape of the dose curve; as a rule, active = well fitted activation curve with a large enough effect; inconclusive = small, poorly fitted or top-dose-only effect; inactive = flat fitted curve, though single readings scatter. Potencies of inconclusive entries are doubtful fits and often do not repeat.
Assay: qHTS of Nrf2 Activators; also: nearly all actives have a fitted effect of over 65% in size; as to activation: % of control where 0% means no effect
Details: AREc32 ARE-luciferase reporter (MCF7-derived line), luminescence, 24 h; activation: at 46.1 µM (top of the series)
In short: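 Steps: seed AREc32_Fluc cells (1000/well, 5% FBS OPTI-MEM); incubate overnight at 37 deg C; add 23 nL compound; incubate 24 hr; add Steady-Glo; hold 30 min RT; read luminescence.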
Potency is read from the fitted curve at half-maximal effect; tags tell the direction and shape of the fitted curve.

| Structure (SMILES) | Potency | activation |
| --- | --- | --- |
| COc1ccc(/C=C2\SC(=S)N(C(C)C(=O)NC3C=CS(=O)(=O)C3)C2=O)cc1 (stereo not given) | inconclusive: 31.6 µM [activator, single point] | – |
| CC(=O)Nc1nc(C)c(C(C)=O)s1 | – | inactive: -0.331% |
| Fc1ccc(-c2cnn3c(-c4cccs4)ccnc23)cc1 | inconclusive: 2.82 µM [activator, partial curve, poor fit] | – |
| O=C(NCc1cccnc1)c1ccc(S(=O)(=O)N2CCCCCC2)cc1 | – | inactive: 0.49% |
| COc1ccc(/C=C2\SC(=N)N(c3nccs3)C2=O)cc1OC | inconclusive: 22.4 µM [activator, single point] | – |
| COc1ccccc1NC1=C(Cl)C(=O)N(C2CCCCC2)C1=O | inconclusive: 20 µM [activator, single point] | – |
| O=C(COc1ccc(/C=N/NC(=O)CSCc2ccc([N+](=O)[O-])cc2)cc1)NCc1ccco1 | – | inactive: 3.99% |
| O=C(N/N=C/C1C(c2ccccc2)C1(Cl)Cl)c1cccc(Cl)c1 (stereo not given) | inconclusive: 22.4 µM [activator, single point] | – |
| CCC(C)(C)c1ccc(Oc2cccc(C(=O)O)c2)cc1 | – | inactive: 3.79% |
| CS(=O)(=O)N1CCN(c2ccc(NC(=O)c3ccc([N+](=O)[O-])o3)cc2)CC1 | inconclusive: 3.98 µM [activator, single point] | – |
| N#CC1(NC(=O)Cn2ncc(Cl)c(Cl)c2=O)CCCCC1 | inconclusive: 3.16 µM [activator, partial curve, poor fit] | – |
| O=C(Nc1ccc(Cl)c(Cl)c1)C1CCN(C(=O)c2ccco2)CC1 | – | inactive: 7.73% |
| CCOC(=O)N1CCc2c(sc3c2C(=O)NC(c2ccccc2)N3)C1 (stereo not given) | inconclusive: 6.31 µM [activator, partial curve, poor fit] | – |
| O=C(NCC(c1ccco1)N1CCN(c2ccccc2)CC1)C(=O)NC1CCCC1 (stereo not given) | – | inactive: -0.354% |
| O=C(Cn1ncc(Cl)c(Cl)c1=O)NCC1CCCCC1 | inconclusive: 2.24 µM [activator, partial curve, poor fit] | – |
| NC(=O)c1ccc(NC(=O)COC(=O)CCC2CCCC2)cc1 | – | inactive: -0.247% |
| CCCCCCOc1ccc(OCC(O)CN2C(=O)NC(C)(C)C2=O)cc1 (stereo not given) | – | inactive: 3% |
| COc1ccc(/C=C/C(=O)c2ccc([N+](=O)[O-])o2)cc1OC | inconclusive: 3.16 µM [activator, single point] | – |
| CCN(CC)C(=O)Cn1c(=O)n(CCCCCC(=O)NCc2ccccc2)c(=O)c2sccc21 | – | inactive: 0.306% |
| O=C(N/N=C/C(Cl)=C\c1ccccc1)c1cccs1 | active: 11.2 µM | – |
| Cc1ccn(CC(C)C(=O)O)n1 (stereo not given) | – | inactive: 0.0592% |
| CCOc1cc(C)c(Cl)cc1S(=O)(=O)NCc1ccco1 | – | inactive: 4.29% |
| CC1=NN(c2ccc(C)cc2)C(=O)/C1=C\C=C\c1ccccc1 | inconclusive: 10 µM [activator, partial curve, poor fit] | – |
| Cc1ccc(SCc2nc(-c3ccc(C(=O)NCc4ccccc4Cl)cc3)oc2C)cc1 | – | inactive: -0.953% |
| O=C(CSc1ncn[nH]1)N1N=C2/C(=C\c3ccco3)CCCC2C1c1ccco1 (stereo not given) | inconclusive: 22.4 µM [activator, single point] | – |

| Structure (SMILES) | Potency | activation |
| --- | --- | --- |
| N#Cc1ccccc1Oc1ccccc1C=O | – | inactive: -0.663% |
| Cc1cc(C)c(C(=O)COc2cccnc2[N+](=O)[O-])cc1C | inconclusive: 31.6 µM [activator, single point] | – |
| COc1ccc(C2C(C(C)=O)=C(O)C(=O)N2c2nc3ccccc3s2)cc1OC (stereo not given) | – | inactive: 0.689% |
| Oc1ccc(N2CCN(c3ncnc4sc(-c5ccccc5)cc34)CC2)cc1 | – | inactive: 10.6% |
| C=C(CCC(=O)c1ccccc1)C(=O)c1ccccc1 | inconclusive: 3.55 µM [activator, single point] | – |
| N#CC(c1ccc(F)cc1)c1ccc(C(=O)c2ccc(F)cc2)cc1 (stereo not given) | – | inactive: 4.28% |
| O=C(NC1CC1)c1cc(-c2ccco2)nc2ccccc12 | active: 12.6 µM | – |
| O=C(Cn1cnc2ccccc21)Nc1cccc([N+](=O)[O-])c1 | inconclusive: 15.8 µM [activator, single point] | – |
| O=C1c2ccccc2C(=O)c2c(Nc3ccc(CCO)cc3)ccc(O)c21 | active: 3.98 µM | – |
| O=C(CNc1ccc2ccccc2c1)N/N=C/c1ccc(OC(=O)/C=C/c2ccco2)cc1 | inconclusive: 15.8 µM [activator, single point] | – |
| CCOc1ccc(NC(=O)Cn2cc(S(=O)(=O)N3CCN(c4ccccc4F)CC3)c3ccccc3c2=O)cc1 | – | inactive: -0.566% |
| C/C(N=Nc1nc2ccccc2s1)=N\Nc1ccccc1O | inconclusive: 3.55 µM [activator, single point] | – |
| COc1cc(OC)cc(-c2cc3nc(C)c(CCC(=O)NC(C)CCc4ccco4)c(C)n3n2)c1 (stereo not given) | – | inactive: -0.43% |
| CN1CCC(OC(=O)c2cc3cc(Cl)cc(Cl)c3oc2=O)CC1 | inconclusive: 20 µM [activator, partial curve, poor fit] | – |
| Cc1cc2nc(-c3cccc(NC(=O)CSc4ccc(Cl)cc4)c3)oc2cc1C | – | inactive: 3.74% |
| O=C(Nc1nc(=O)c2ccccc2s1)c1ccc(Cl)cc1 | inconclusive: 1.78 µM [activator, full curve, poor fit] | – |
| Cn1cc([N+](=O)[O-])c(C(=O)Nc2ccc(C3CCCCC3)cc2)n1 | inconclusive: 5.62 µM [activator, single point] | – |
| Cc1noc2ncnc(N3CCN(c4ccccc4F)CC3)c12 | – | inactive: -0.597% |
| CCCc1nnc(NC(=O)CCS(=O)(=O)c2ccccc2)s1 | inconclusive: 17.8 µM [activator, single point] | – |
| O=C(CCS(=O)(=O)c1cccc2nonc12)Nc1cccc(F)c1 | – | inactive: 4.66% |
| O=C(CCN1C(=O)/C(=C\c2ccccc2)SC1=S)N1CCOCC1 | inconclusive: 12.6 µM [activator, single point] | – |
| Cc1cccc(/N=C/c2nc(-c3ccccc3Br)oc2O)n1 | inconclusive: 14.1 µM [activator, single point] | – |
| COc1cc(OC)c2ccc(=O)oc2c1C(CC(=O)N1CCCC1)c1ccc2c(c1)OCO2 (stereo not given) | – | inactive: 3.7% |
| O=C(Oc1cccc2c(O)cccc12)c1ccccc1 | inconclusive: 8.91 µM [activator, partial curve, poor fit] | – |
| C=C1CCC[C@]2(C)C[C@H]3OC(=O)C(CNCC(OC)OC)[C@H]3CC12 (stereo not given in full) | inconclusive: 12.6 µM [activator, single point] | – |

| Structure (SMILES) | Potency | activation |
| --- | --- | --- |
| Cc1ccoc1C(=O)Nc1ccc(CC(=O)O)cc1 | – | inactive: -2.19% |
| COc1cccc(C(=O)Nc2ccc3c(c2)n(C)c(=O)n3C)c1 | inconclusive: 20 µM [activator, single point] | – |
| Oc1ccccc1C1NN=C(c2ccccc2)S1 (stereo not given) | active: 7.08 µM | – |
| COc1cccc(/C=C/C(=O)OCC(=O)c2c[nH]c3ccccc23)c1OC | inconclusive: 15.8 µM [activator, single point] | – |
| O=C(N/N=C1\C2CN3CCN(C2)CC1(c1ccccc1)C3)c1ccc(F)cc1 | – | inactive: -0.237% |
| CCN1C(=O)c2cccc3c(S(=O)(=O)N4CCC(C)CC4)ccc1c23 | inconclusive: 14.1 µM [activator, single point] | – |
| COc1ccc(CCN2C(=O)CSC2=S)cc1OC | inconclusive: 3.55 µM [activator, single point] | – |
| Cc1ccc(NC(=O)c2ccc([N+](=O)[O-])o2)cc1C | inconclusive: 3.55 µM [activator, partial curve, poor fit] | – |
| Cc1cc(C)cc(NC(=O)Nc2cccs2)c1 | inconclusive: 2.82 µM [activator, full curve, poor fit] | – |
| COc1ccc(-c2c(C)sc(NC(=O)c3ccnn3C)c2C#N)cc1 | – | inactive: 4.93% |
| O=C1S/C(=C\C=C\c2ccco2)C(=O)N1c1ccc(O)cc1 | inconclusive: 2.51 µM [activator, full curve, poor fit] | – |
| Cc1ccc(NC(=O)c2nsc(Cl)c2Cl)cc1 | active: 5.62 µM | – |
| O=C(NN1C(=O)c2ccccc2NC1c1ccc([N+](=O)[O-])o1)c1ccc(Br)cc1 (stereo not given) | inconclusive: 22.4 µM [activator, single point] | – |
| Cc1csc2c(=O)sc(NC(=O)c3ccc(F)cc3Cl)nc12 | inconclusive: 7.08 µM [activator, partial curve] | – |
| Cc1cc(C(=O)NC2CCCCC2)c(C)n1-c1ccc(F)cc1 | inconclusive: 22.4 µM [activator, single point] | – |
| COc1cc(C(=O)O/N=C2\C=CC(=O)C(C)=C2)cc(OC)c1OC | inconclusive: 25.1 µM [activator, single point] | – |
| S=C(N/N=C1\CCc2ccccc21)NC1CCCCC1 | – | inactive: 16.8% |
| Oc1ccc(N=Nc2ccccc2C(F)(F)F)c2cccnc12 | – | inactive: -1.15% |
| COC(=O)C=CSC(=S)C1CCCC1=N (stereo not given) | inconclusive: 11.2 µM [activator, partial curve, poor fit] | – |
| O=C(CCN1CCOCC1)c1ccc2c(c1)OCCO2 | inconclusive: 11.2 µM [activator, partial curve, poor fit] | – |
| COCc1[nH]nc2c1C(C1C=CCCC1)C(C#N)=C(N)O2 (stereo not given) | inconclusive: 25.1 µM [activator, single point] | – |
| O=C(/C=C/c1ccco1)OCc1nnc(-c2ccccc2)o1 | active: 11.2 µM | – |
| Nc1cc(C(=O)O)c(N)c2c1C(=O)c1ccccc1C2=O | – | inactive: 1.68% |
| Cc1sc2c(c1C)C(=O)NC(c1ccccc1F)N2 (stereo not given) | inconclusive: 0.891 µM [activator, full curve, poor fit] | – |
| CC(C)(C)c1ccc(C(=O)CC(Sc2ccc(Cl)cc2)C(=O)O)cc1 (stereo not given) | inconclusive: 4.47 µM [activator, single point] | – |

From PubChem BioAssay AID624171 (National Center for Advancing Translational Sciences (NCATS), 2012)
